Assay results published in PubChem BioAssay AID652104 (National Center for Advancing Translational Sciences (NCATS), 2013).
In all, about 410,000 compounds went through this assay and about 7,200 (1.8%) were called active. Inconclusive means that the source gave no clear call. Such entries were picked first, then a sample of the others. The call rests on the fitted dose curve; in most records, active means well fitted activation curve with a large enough effect; inconclusive means small, poorly fitted or top-dose-only effect, or another doubt; inactive means no such curve, though single readings can be large or run the other way. Potencies beside an inconclusive call are fits to weak or partial responses and may not hold up.

Assay: qHTS of TDP-43 Inhibitors; further: nearly all actives have a fitted effect of over 50% in size; on growth rescue (activation): % of control where 0% means no effect
Conditions: TDP-43 expressing yeast growth rescue, BacTiter-Glo, 24 h; growth rescue (activation): at 46.1 µM (top of the series) unless noted
How it was run: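 Readout is BacTiter-Glo luminescence of cell growth, so inhibitors register as activators. TDP-43-expressing yeast at OD600=0.02 in galactose medium, after raffinose pregrowth to mid-log, were incubated with compound for 24 hr at 30 deg C.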
Potency means the concentration at half of the fitted maximal effect; tags describe the fitted curve by direction and shape.

Potency, active:
O=C(CCn1ccc2ccccc21)NC1CCCc2ccccc21 (stereo not given) 17.8 µM
Fc1ccc2nc(Nc3nc4c(s3)CCCC4)sc2c1 2.24 µM
O=C1c2ccccc2S(=O)(=O)N1CC(O)Cn1c2ccccc2c2ccccc21 (stereo not given) 11.2 µM
O=C(NC(=S)Nc1ccccc1Br)C1CCCC1 15.8 µM
Cc1nc(CS(=O)(=O)c2ccc(Cl)cc2)cc(Sc2ccccc2Cl)n1 35.5 µM
Cc1cccc(-c2nc(CCNC(=O)COc3ccccc3)cs2)c1 35.5 µM
COc1ccc(C(=O)Nc2cccc(-c3cn4ccsc4n3)c2)c(OC)c1 5.01 µM
COc1ccccc1CCNC(=O)c1ccc(Br)s1 14.1 µM
CCC(c1nnnn1-c1ccc2c(c1)OCCO2)N1CCN(c2ncccc2C(F)(F)F)CC1 (stereo not given) 12.6 µM
CC(C)(O)c1[nH]c2ccc(C(F)(F)F)cc2c1C(C)(C)O 14.1 µM
O=C(CSc1cc(Cl)ccc1Cl)Nc1ccc(N2CCOCC2)cc1 15.8 µM
CCOC(=O)/C=C/C(=O)OCC(=O)Nc1ccc(OC)c(Cl)c1 35.5 µM
Cc1cc(C)nc(N(C#N)CCOc2ccc(Cl)cc2)n1 17.8 µM
CCc1ccccc1S(=O)(=O)Cc1ccc(C(=O)NCc2ccc(Cl)cc2)o1 35.5 µM
COc1ccc2c(c1)CC/C2=N\OC(=O)c1cccc(C)c1 5.01 µM
Cc1cc(Cl)ccc1OCC(=O)NNC(=O)C1CCN(c2ncnc3sc(C)c(C)c23)CC1 22.4 µM

Potency, inconclusive:
O=C(CSc1ccccc1F)Nc1ccc2c(c1)OCO2 35.5 µM [activator, partial curve, poor fit]
O=C(CSc1ncccn1)Nc1cc(Cl)ccc1[N+](=O)[O-] 3.16 µM [activator, partial curve]
Cn1cc(SCC(=O)NCc2ccc(F)cc2)c2ccccc21 12.6 µM [activator, partial curve]
c1ccc2sc(NC3=NCN(Cc4ccc5c(c4)OCO5)CN3)nc2c1 11.2 µM [activator, partial curve, poor fit]
S=C(Cc1ccccc1)NCCc1ccccc1 35.5 µM [activator, single point]
Cc1ccc(Sc2c(C(=O)NCc3cccc(F)c3)[nH]c3ccccc23)cc1 35.5 µM [activator, single point]
Cc1nn2c(N3CCOCC3)c3c(nc2c1-c1ccccc1)CCCC3 10 µM [activator, partial curve]
COc1ccc(C2=NOC(Cn3nc(C(=O)NCc4ccco4)cc3-c3ccccc3)C2)cc1 (stereo not given) 35.5 µM [activator, single point]
CC(CCc1ccccc1)NC(=O)COC(=O)c1ccccc1Br (stereo not given) 35.5 µM [activator, partial curve]
CCOC(=O)C1=CCN(S(=O)(=O)c2ccc(Br)cc2)C1c1ccc(C)cc1 (stereo not given) 10 µM [activator, partial curve]
CCCC(=O)OCC(=O)Nc1ccc(N=Nc2ccccc2)cc1 20 µM [activator, partial curve]
O=C1c2cccc([N+](=O)[O-])c2C(=O)N1C1CCCCC1 14.1 µM [activator, single point]
C/C(=N\NC(=S)Nc1cccc(C)c1)c1cccc(N)c1 7.94 µM [activator, partial curve]
Oc1ccc(/C=N/NC(=S)NC2CC3CCC2C3)cc1 (stereo not given) 7.94 µM [activator, single point]
O=C(CSCc1ccc(Cl)cc1)Nc1ccc2c(c1)OCO2 35.5 µM [activator, single point]
Cc1csc2ncc(C(=O)NCCC(c3ccccc3)c3ccccc3)c(=O)n12 11.2 µM [activator, single point]
COc1ccc(-c2coc3cc(OC(C)=O)c(OC)cc3c2=O)cc1 35.5 µM [activator, partial curve]
Cc1ccc2sc(N(Cc3cccnc3)C(=O)Cc3ccccc3)nc2c1C 6.31 µM [activator, partial curve]
COc1ccc(N(C(=O)Cn2nnc3ccccc32)C(C(=O)NCc2ccco2)c2cccnc2)cc1 (stereo not given) 2.82 µM [activator, single point]
O=C(Nc1ccc2c(c1)OCO2)c1cc(C2CCCCN2S(=O)(=O)Cc2ccccc2)on1 (stereo not given) 39.8 µM [activator, partial curve, poor fit]
C/C(=N/O)c1c(O)c(C)c(-c2ccccc2)n(-c2ccccc2)c1=O 1 µM [activator, full curve]
CCOc1cc(N2CCOCC2)c(OCC)cc1NC(C)C(=O)N1CCN(CC)CC1 (stereo not given) 35.5 µM [activator, partial curve]
O=C(CCl)N(c1ccc(Cl)cc1)c1c[nH]c2ccccc12 25.1 µM [activator, single point]
Cc1ccc(Sc2ncnc3onc(C)c23)cc1 10 µM [activator, partial curve]
Fc1ccc(CSc2nnc(-c3ccco3)o2)cc1 14.1 µM [activator, partial curve]
CC(C)C(=O)NC(Nc1cccc2cccnc12)C(Cl)(Cl)Cl (stereo not given) 20 µM [activator, single point]
CC(C)(C)c1csc(NC(=O)Cc2cccs2)n1 12.6 µM [activator, partial curve]
CCc1ccc(C(=O)CC2(O)C(=O)N(CCc3ccccc3)c3ccc(Br)cc32)cc1 (stereo not given) 35.5 µM [activator, single point]
Cn1nc(C(F)(F)F)c(-c2ccc(Br)cc2)c1NC(=O)c1ccco1 17.8 µM [activator, single point]
O=C(CSC1=NCCS1)Nc1cccc(F)c1 11.2 µM [activator, partial curve]
O=C1C=C(NCc2ccc(Cl)cc2)CCC1 12.6 µM [activator, single point]
COc1ccc(OC)c(CNC(=O)CCSCc2ccc(F)cc2Cl)c1 35.5 µM [activator, single point]
O=C(c1ccc(-c2ccccc2Cl)o1)N1CCCCCCC1 17.8 µM [activator, single point]
Cn1cc(CNC(=O)c2cc(COc3ccc4c(c3)CCCC4)on2)cn1 2.51 µM [activator, full curve, poor fit]
O=S(=O)(Oc1ccccc1C(=S)N1CCOCC1)c1ccc(Cl)cc1 11.2 µM [activator, partial curve]
O=C(CCCCC(=O)Sc1ccccc1)Sc1ccccc1 35.5 µM [activator, single point]

Growth rescue (activation), inactive:
COc1cc(/C=C(/C#N)C(=O)c2c(C)[nH]c3ccccc23)ccc1OCC#N 4.53%
O=C(C[n+]1cccc(Br)c1)c1cccs1 -12.3%
O=C(Cn1cccc1C(=O)c1ccccc1)NCCCc1ccccc1 -3.44%
COc1cccc(CNc2nc3ccccc3c3nc(-c4cccc(C)c4)nn23)c1 18.8%
COC(=O)[C@@]12CCCCN1[C@H](c1ccc(SC3CCCCC3)c(OC)c1)[C@@H]1C(=O)N(C)C(=O)[C@@H]12 20.3%
O=C(Nc1ccc(Br)cc1F)c1sccc1-n1cccc1 1.93%
Cc1cccc(N2CCN(C(=O)CN3C(=O)COc4ccc(S(=O)(=O)N5CCC(C)CC5)cc43)CC2)c1C 17.8%
COc1ccc(C2CC(=O)Oc3cc(OC)ccc32)cc1 (stereo not given) 17.7%
c1ccc(-c2cn3ccccc3n2)cc1 -18.6%
CCCCn1c(N)c(N(CCOC)C(=O)c2ccc(-n3c(C)ccc3C)cc2)c(=O)[nH]c1=O -13.2%
COc1ccc(NC(=O)C2C(c3ccc4c(c3)OCO4)=Nc3ccccc3N2C(C)=O)cc1 (stereo not given) 24.5%
COc1ccc2ccccc2c1/C=N/NC(=S)NCCN1CCOCC1 -22.2%
Cc1ccc(N2CCn3c2nc2c3c(=O)n(C/C=C/c3ccccc3)c(=O)n2C)cc1C 15.5%
Cc1ccc(CNC(=O)C(Cc2ccccc2)NS(=O)(=O)c2cccs2)cc1 (stereo not given) -11.2%
COc1ccc(S(=O)(=O)N2CCC(N3CCN(Cc4ccccc4)C(=O)C3=O)CC2)cc1 15.5%
COc1ccc(CNC(=O)Cn2c(=O)nc(-c3ccccc3)c3cc(Cl)ccc32)cc1OC 0%
COc1ccc(C(C(=O)NCc2ccc(F)cc2)N(C(=O)c2csnn2)C2CC2)cc1 (stereo not given) -7.29%
Cc1ccc(CSC2=Nc3ccccc3C3=NC(CCC(=O)NC4CCCCC4)C(=O)N23)cc1 (stereo not given) 8.32%
CCc1ccc(NCc2cc3ccc(OC)cc3n(CC(=O)Nc3ccccc3C)c2=O)cc1 25.3%
NC(=O)C1CCN(C(=O)c2ccc3c(c2)N(Cc2cccc(Cl)c2)C(=O)c2ccccc2S3=O)CC1 (stereo not given) -1.04%
Cc1ccc(C)c(S(=O)(=O)N2CCN(C(=O)CSc3ccccc3F)CC2)c1 27.7%

Growth rescue (activation), inconclusive:
CCN1/C(=C(\O)c2ccccc2)C(=O)c2ccccc2S1(=O)=O -88.8% [activator]
COc1ccc(S(=O)(=O)N2CCCCCC2)cc1C(=O)N(C)Cc1ccccc1F 30.4% [activator]
